Data: PubChem BioAssay AID504832 (National Center for Advancing Translational Sciences (NCATS), 2011)
“And” between values parts separate entries of the source, which are not always exact repeats. Identical values can stand only once. About 18,000 (5.8%) of roughly 310,000 compounds were called active. Inconclusive means that the source gave no clear call. Such entries were picked first, then a sample of the others. Calls follow the shape of the dose curve; as a rule, active = well fitted inhibition curve with a large enough effect; inconclusive = small, poorly fitted or top-dose-only effect, or another doubt; inactive = no such curve, though single readings can be large or run the other way. Potencies of inconclusive entries are left out as doubtful fits.
% is scaled to controls: 0 for no effect and ±100 for the full control effect; potency is read from the fitted curve at half-maximal effect; tags tell the direction and shape of the fitted curve.

Test: Primary qHTS for delayed death inhibitors of the malarial parasite plastid, 48 hour incubation
Conditions: P. falciparum luciferase growth in erythrocytes; series mostly up to 28.7 µM
Outline: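 Erythrocytes infected with P. falciparum carrying an integrated firefly luciferase reporter (2% hematocrit, 0.1% parasitemia final) were exposed to compounds in RPMI 1640 with 0.5% Albumax at 37 C, 5% CO2. Growth inhibition was scored as reduced luminescence.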
With CCN(CC)S(=O)(=O)c1ccc(N2CCOCC2)c(NC(=O)c2cccc(C#N)c2)c1 the Potency was inconclusive [inhibitor, single point]. For CCn1c2ccccc2c2nnc(SCCN3CCCCC3)nc21, the Potency was inconclusive [inhibitor, single point]. For COc1ccc(N2C(=O)N3[C@H](c4ccc(Cl)cc4)[C@@H]4C(=O)N(C5CCCCC5)C(=O)[C@@H]4[C@]3(C)C2=O)cc1, the Potency was inconclusive [inhibitor, single point]. For CCn1c(N2CCN(CC(=O)c3c[nH]c4ccccc34)CC2)nc2c1c(=O)[nH]c(=O)n2C, the Potency was inconclusive [inhibitor, partial curve, poor fit]. In the case of COc1ccc(-n2c(COc3ccc(Cl)cc3)nnc2SCc2ccc(C#N)cc2)cc1, the Potency is reported as inconclusive [inhibitor, single point]. In the case of CC(=O)Nc1ccc(C(=O)OCC(=O)Nc2ccccc2Sc2ccccc2)cc1, the Potency is reported as inconclusive [inhibitor, partial curve, poor fit]. In the case of COc1ccc(/C=N/Nc2nncn2N)cc1Br, the Potency is reported as inconclusive [inhibitor, single point]. For C=CCn1c(SCC(=O)Nc2ccc3c(c2)OCO3)nnc1-c1cc(Br)ccc1O, the Potency was inconclusive [inhibitor, single point]. With COc1ccc(OC)c(CNC(=O)CCCn2ccc3cc(S(=O)(=O)N4CCCC4)ccc32)c1 the Potency was inconclusive [inhibitor, single point]. For N#Cc1ccc(N2C(=O)[C@@H]3C(C(=O)c4cnccn4)=NN[C@@H]3C2=O)cc1, the Potency was “inactive”. With COCCCNC(=O)COc1cc2c(c3oc(=O)c(C)c(C)c13)CCC(C)(C)O2 the activity change, negative = inhibition was inactive: 1.96% [at 0.00184 µM]. With CC(C)OC(=O)Cn1nc(C(c2ccccc2)c2ccccc2)oc1=O the Potency was inconclusive [inhibitor, single point]. For COc1ccc(Cc2nc3ccc(C(=O)N(C)CC4COCCO4)cc3o2)cc1 (stereo not given), the Potency was inconclusive [inhibitor, partial curve, poor fit]. In the case of CCNc1nc(NCC)nc(N(C)N)n1, the Potency is reported as inconclusive [inhibitor, partial curve, poor fit]. With CN1CCC(=O)N(CCSc2ccccc2)CC1 the Potency was “inactive”. With Cc1ccc2c(=O)[nH]c(Nc3nc(C)cc(-c4ccccc4)n3)nc2c1 the Potency was inconclusive [inhibitor, partial curve, poor fit]. With O=C(CSc1nnc(CNC(=O)c2ccc(F)cc2)o1)Nc1ccc2c(c1)OCCO2 the Potency was inconclusive [inhibitor, partial curve]. In the case of CCOC(=O)N1CCN(C(=O)CCCOc2ccccc2)CC1, the Potency is reported as “inactive”. With CCOc1ccccc1NC(=O)CC1SC(=N)N(c2ccccc2)C1=O (stereo not given) the Potency was inconclusive [inhibitor, single point]. For O=C(OCC(=O)N1CCCC1)c1c2c(nc3ccccc13)CCCCC2, the Potency was “inactive”. For COc1ccc(-c2noc(CN(C)CCC3CCCCO3)n2)cc1 (stereo not given), the Potency was inconclusive [inhibitor, single point]. With CCN(CC(=O)Nc1ccc(NC(C)=O)cc1)C(=O)/C=C/c1ccc2c(c1)OCO2 the Potency was “inactive”. With CCOC(=O)N1CCC(NC(=O)c2ccc3c(c2)N=C(C)c2c(C)ccc(C)c2S3)CC1 the Potency was inconclusive [inhibitor, full curve]. With CCOc1cc(/C=N\NC(=O)C2C(=O)NCC2c2ccccc2)ccc1OC (stereo not given) the Potency was “inactive”. For COc1ccc(N2CCN(C(CNC(=O)C(=O)NCc3cccs3)c3ccco3)CC2)cc1 (stereo not given), the Potency was inconclusive [inhibitor, partial curve, poor fit]. For CCN1CCN(c2ccc(N)c(C)c2)CC1, the Potency was inconclusive [inhibitor, single point]. In the case of CC(C)Cc1cc(C(=O)NCCc2ccccc2)no1, the Potency is reported as “inactive”. For O=C(CN1C(=O)c2cccnc2Oc2ccc(Cl)cc21)NC1CCCC1, the Potency was inconclusive [inhibitor, single point]. With COc1nc(-c2ccccc2)ncc1S(=O)(=O)c1ccccc1 the Potency was inconclusive [inhibitor, partial curve]. For Cn1cccc1C(=O)OCc1csc(-c2ccccc2)n1, the Potency was “inactive”. With Cc1cccn2c(=O)nc(SCC(=O)Nc3ccc4c(c3)OCCO4)nc12 the Potency was inconclusive [inhibitor, single point]. In the case of O=[N+]([O-])c1cc(O)c2ncccc2c1, the Potency is reported as inconclusive [inhibitor, full curve]. With CCN(CC(=O)Nc1ccc(Br)cc1)C(=O)Cc1cccc(F)c1 the Potency was “inactive”. In the case of COc1ccc(C2Nc3ccccc3C(=O)N2Cc2ccco2)cc1CN1C(=O)c2ccccc2C1=O (stereo not given), the Potency is reported as active: 10.4 µM and active: 13.1 µM. For CC(=O)Nc1ccc(/C=N/Nc2nc3ccccc3[nH]2)cc1, the Potency was active: 1.85 µM. In the case of CCCCn1c(NS(=O)(=O)c2ccc(C)cc2)c(S(=O)(=O)c2ccccc2)c2nc3ccccc3nc21, the Potency is reported as inconclusive [inhibitor, single point]. For CCOC(=O)c1c(CC(C)C)csc1NC(=O)c1ccccc1C(=O)O, the Potency was “inactive”. In the case of O=S(=O)(NCc1ccccc1)c1ccc(NC(=S)NCc2ccco2)cc1, the Potency is reported as “inactive”. With C[n+]1cccc(/C=N/NC(=O)CC23CC4CC(CC(C4)C2)C3)c1 the Potency was inconclusive [inhibitor, full curve]. For O=C(Cc1ccccc1Cl)Nc1cccc(S(=O)(=O)N2CCCCCC2)c1, the Potency was inconclusive [inhibitor, single point]. For OCCCc1nc2ccccc2n1CCOc1ccccc1, the Potency was inconclusive [inhibitor, single point]. For COc1ccccc1CNC(=O)N1CCN(c2ccccc2Cl)CC1, the Potency was inconclusive [inhibitor, single point]. In the case of COC(=O)C1=C(c2ccc(Cl)c(C(F)(F)F)c2)C[C@@H]2CC[C@H]1N2C(=O)NCc1ccco1, the Potency is reported as inconclusive [inhibitor, single point]. In the case of COc1cccc(C(=O)N(C)c2nnc(-c3ccncc3)s2)c1, the Potency is reported as “inactive”. With Cc1ccc(C)c(-n2cc(CNCCc3cnccn3)c(-c3ccccc3)n2)c1 the Potency was active: 7.38 µM. For O=C(NCCOC12CC3CC(CC(C3)C1)C2)c1cccc(Br)c1, the Potency was active: 9.28 µM. For COc1ccc(-c2cc3cc(-c4cc(OC)c(OC)c(OC)c4)ccc3o2)cc1, the Potency was “inactive”. For CC(C)(C)SCCNC(=O)CN(c1ccccc1)S(=O)(=O)c1ccccc1, the Potency was inconclusive [inhibitor, partial curve]. In the case of COc1ccc(/C=C/c2nnc(NC(=O)COc3cccc(C)c3)s2)cc1, the Potency is reported as “inactive”. For N#CCCN1CCN(C2=NC(=O)C(=C3CCCCC3)S2)CC1, the Potency was “inactive”. For Cc1c(NC(=O)CCC(=O)N2CCCCC2)c(=O)n(-c2ccccc2)n1C, the Potency was “inactive”. In the case of N#CCCN1CCN(C(=S)c2ccc(-c3cc(Cl)ccc3Cl)o2)CC1, the Potency is reported as inconclusive [inhibitor, single point]. In the case of O=C(O)CCSc1nc2ccc(Br)cc2[nH]1, the Potency is reported as inconclusive [inhibitor, single point]. For CCOc1ccc(N(CC(=O)NC2CCCC(C)C2C)S(=O)(=O)c2c(C)noc2C)cc1 (stereo not given), the Potency was “inactive”. For COc1ccc(NC(=O)CN(C)C(=O)c2cccc(Oc3ccccc3)c2)cc1, the Potency was inconclusive [inhibitor, single point]. In the case of CCc1cc2c(=O)c(-c3ccc(F)cc3)c(C(F)(F)F)oc2cc1OCC(=O)O, the Potency is reported as “inactive”. With CS(=O)(=O)N(CC(=O)N1CCCCC1)Cc1ccccc1 the Potency was inconclusive [inhibitor, full curve, poor fit]. In the case of CC(C)OP(=O)(OC(C)C)C(Nc1ccccc1)c1cccnc1 (stereo not given), the Potency is reported as “inactive”. In the case of O=C(O)c1ccc(N/N=C/c2cccc3cccnc23)cc1, the Potency is reported as “inactive”. With CCOC(=O)c1c(C)[nH]c(C(=O)N/N=C/c2cc([N+](=O)[O-])ccc2O)c1C the Potency was inconclusive [inhibitor, full curve]. For CCC(C)C(NC(=O)C(C)NC(=O)CNC(=O)CNC(=O)OCc1ccccc1)C(=O)OC (stereo not given), the Potency was “inactive”. With O=C(Nc1ccccc1)c1cc([N+](=O)[O-])ccc1NCc1cccnc1 the Potency was inconclusive [inhibitor, single point]. For COc1ccc(Cc2noc(CN(C)CC(O)c3ccccc3)n2)cc1OC (stereo not given), the Potency was “inactive”. With Cc1noc(C)c1S(=O)(=O)N(C)CC(=O)NCc1ccccc1 the Potency was inconclusive [inhibitor, full curve, poor fit]. For Cc1cc(C)n(Cc2ccc(Cl)cc2Cl)c(=O)c1S(=O)(=O)c1ccccc1, the Potency was active: 13.1 µM. In the case of Cc1ccc(C)c(S(=O)(=O)N2CCN(C(=O)CCNC(=O)c3ccc(Br)cc3)CC2)c1, the Potency is reported as inconclusive [inhibitor, single point]. For CCO[C@@H]1OC(C(=O)N2CCN(Cc3ccc4c(c3)OCO4)CC2)=C[C@H](c2ccc(C(F)(F)F)cc2)[C@H]1CCCO, the Potency was active: 1.47 µM. In the case of CN(C)S(=O)(=O)c1cccc(COC(=O)Cc2c(F)cccc2Cl)c1, the Potency is reported as inconclusive [inhibitor, partial curve, poor fit]. With O=C(NC(Cc1ccccc1)C(=O)N1CCN(c2ccccn2)CC1)c1ccco1 (stereo not given) the Potency was inconclusive [inhibitor, partial curve, poor fit]. With Cc1ccc(C)c(OCCC(=O)NNC(=O)c2ccccc2F)c1 the Potency was inconclusive [inhibitor, single point].
